Holding throughout (test): Viability of human cancer cell lines after 72 h of drug (GDSC screen)
Compound in one test: Cc1cnc(Nc2ccc(OCCN3CCCC3)cc2)nc1Nc1cccc(S(=O)(=O)NC(C)(C)C)c1 [TG101348]
The following applies: top dose 10.24 µM. On the procedure: (§1)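 Human cancer cell lines in 384-well plates, medium with 10% serum, drug for 72 h over a 256-fold dose range (nine 2-fold or five 4-fold steps up to the top dose). Adherent lines were fixed and stained with the nucleic acid dye Syto60, suspension lines read with resazurin; signal relative to control wells, capped at 0 and 100%. One two-parameter sigmoid per drug and line, fitted in a mixed model over all curves with the slope shared within a line.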

Compound in another test: CS(=O)(=O)c1ccc(C(=O)Nc2ccc(Cl)c(-c3ccccn3)c2)c(Cl)c1 [Vismodegib]
The following applies: top dose 10 µM; top dose inferred. On the procedure: as §1

Compound in the next test: Cc1cnc(Nc2ccc(F)cc2Cl)nc1-c1c[nH]c(C(=O)N[C@H](CO)c2cccc(Cl)c2)c1 [VX-11e]
The settings on record: top dose 5.12 µM; top dose inferred. On the procedure:
as §1

Compound in another test: C=CCNC1=C2C[C@@H](C)C[C@H](OC)[C@H](O)[C@@H](C)/C=C(\C)[C@H](OC(N)=O)[C@@H](OC)/C=C\C=C(/C)C(=O)NC(=CC1=O)C2=O [17-AAG]
The following applies: top dose 1 µM. On the procedure: as §1

Compound in a further test: COc1cccc2c1C(=O)c1c(O)c3c(c(O)c1C2=O)C[C@@](O)(C(=O)CO)C[C@@H]3O[C@H]1C[C@H](N)[C@H](O)[C@H](C)O1 [Doxorubicin]
The settings on record: top dose 1.024 µM. On the procedure: as §1

Compound in the next test: C=CC(=O)Nc1cc(-n2c(=O)ccc3cnc4ccc(-c5ccc(NS(C)(=O)=O)cc5)cc4c32)ccc1C [BMX-IN-1 (QL-XII-61)]
The settings on record: top dose 10 µM; top dose inferred. On the procedure: as §1

Compound in another test: O=C(c1ccc(C(=O)N2CCC(N3CCCC3)CC2)c(Nc2ccccc2)c1)N1CCC(N2CCCC2)CC1 [UNC1215]
The settings on record: top dose 1 µM; top dose inferred. On the procedure:
as §1

Compound in the next test: COc1cccc2cc(-c3nc([C@H]4CC[C@H](C(=O)O)CC4)n4ncnc(N)c34)[nH]c12 [OSI-027]
The following applies: top dose 20 µM. On the procedure:
as §1

Compound in another test: CN(C)Cc1cccc(N=C(c2ccccc2)c2c(O)[nH]c3cc(C(=O)N(C)C)ccc23)c1 [BIX02189]
The following applies: top dose 20 µM; top dose inferred. On the procedure:
as §1

Compound in the next test: COC(=O)CNC(=O)C(=O)OC [Dimethyloxalylglycine]
The settings on record: top dose 4000 µM; top dose inferred. On the procedure:
as §1

Compound in another test: CCc1cc(-c2n[nH]c(C)c2-c2ccc3c(c2)OCCO3)c(O)cc1O [CCT018159]
The following applies: top dose 10 µM; top dose inferred. On the procedure:
as §1

Consider six cell lines from the supplement of paper PMC4967469.

A lower IC50 marks a more sensitive line; fits outside the tested doses are given as limits. AUC is the area under the same curve over the 256-fold range up to the top dose, as a fraction; it is 1 without any effect and falls as sensitivity rises. For part of these data: Where the top dose is marked as inferred, it was calculated from the reported fits.

Regarding TE-5 (oesophagus, adherent), the AUC in the test with TG101348 was 0.956; in the test with Vismodegib, 0.961; in the test with VX-11e, 0.978; with 17-AAG it was 0.906; with Doxorubicin it was 0.448; with BMX-IN-1 (QL-XII-61), 0.924. Also, the AUC was determined as 0.982 with UNC1215; 0.453 with OSI-027; 0.978 with BIX02189; 0.715 with Dimethyloxalylglycine; 0.964 with CCT018159. Also, the IC50 with TG101348 was over 10.2 µM; in the test with Vismodegib, over 10 µM; with VX-11e it was over 5.12 µM; in the test with 17-AAG it was over 1 µM; with Doxorubicin, 0.0451 µM; in the test with BMX-IN-1 (QL-XII-61), over 10 µM. For the same cell line, the IC50 with UNC1215 was over 1 µM; with OSI-027 it was 0.913 µM; with BIX02189, over 20 µM; with Dimethyloxalylglycine, 1120 µM; in the test with CCT018159, over 10 µM.
For “SW1271 (small cell lung carcinoma, adherent)”, the AUC was determined as 0.753 with TG101348; 0.984 in the test with Vismodegib; 0.68 with VX-11e; 0.964 with 17-AAG; 0.492 in the test with Doxorubicin; 0.982 in the test with BMX-IN-1 (QL-XII-61). Moreover, the AUC with UNC1215 came out at 0.982; in the test with OSI-027, 0.508; in the test with BIX02189 it was 0.736; in the test with Dimethyloxalylglycine, 0.397; with CCT018159 it was 0.948. Also, the IC50 in the test with TG101348 was 3.91 µM; with Vismodegib, over 10 µM; with VX-11e it was 1.11 µM; with 17-AAG it was over 1 µM; with Doxorubicin, 0.0605 µM; with BMX-IN-1 (QL-XII-61), over 10 µM. In addition, the IC50 with UNC1215 was over 1 µM; with OSI-027, 1.32 µM; with BIX02189, 6.63 µM; with Dimethyloxalylglycine it was 125 µM; with CCT018159, over 10 µM.
Regarding “CAL-12T (non-small cell lung carcinoma, adherent)”, the AUC in the test with TG101348 is 0.813; with Vismodegib, 0.972; in the test with VX-11e it was 0.869; with 17-AAG it was 0.775; in the test with Doxorubicin, 0.347; with BMX-IN-1 (QL-XII-61), 0.968. The AUC was found to be 0.982 with UNC1215; 0.327 in the test with OSI-027; 0.906 with BIX02189; 0.282 with Dimethyloxalylglycine; 0.805 with CCT018159. Also, the IC50 was 6.39 µM with TG101348; over 10 µM with Vismodegib; over 5.12 µM with VX-11e; 0.446 µM in the test with 17-AAG; 0.0228 µM with Doxorubicin; over 10 µM with BMX-IN-1 (QL-XII-61). Besides, the IC50 was over 1 µM with UNC1215; 0.387 µM with OSI-027; over 20 µM in the test with BIX02189; 55.5 µM with Dimethyloxalylglycine; 5.78 µM with CCT018159.
In the case of C32 (melanoma, adherent), the AUC is 0.962 with TG101348; 0.986 with Vismodegib; 0.929 with VX-11e; 0.176 with 17-AAG; 0.971 with Doxorubicin; 0.887 with BMX-IN-1 (QL-XII-61). The AUC in the test with UNC1215 was 0.985; with OSI-027 it was 0.982; with BIX02189 it was 0.987; with Dimethyloxalylglycine, 0.944; in the test with CCT018159, 0.883. The IC50 with TG101348 is over 10.2 µM; in the test with Vismodegib, over 10 µM; with VX-11e, over 5.12 µM; with 17-AAG it was 0.00604 µM; in the test with Doxorubicin, over 1.02 µM; with BMX-IN-1 (QL-XII-61), over 10 µM. The IC50 with UNC1215 is over 1 µM; with OSI-027, over 20 µM; in the test with BIX02189, over 20 µM; with Dimethyloxalylglycine, over 4000 µM; with CCT018159, over 10 µM.
For PCI-6A (head and neck, adherent), the AUC was 0.806 with TG101348; 0.96 with Vismodegib; 0.925 with VX-11e; 0.497 with 17-AAG; 0.347 in the test with Doxorubicin; 0.986 with BMX-IN-1 (QL-XII-61). Further, the AUC in the test with UNC1215 is 0.986; with OSI-027, 0.457; with BIX02189, 0.866; in the test with Dimethyloxalylglycine, 0.789; with CCT018159, 0.928. Also, the IC50 with TG101348 is 5.08 µM; in the test with Vismodegib, over 10 µM; in the test with VX-11e, over 5.12 µM; with 17-AAG, 0.0614 µM; with Doxorubicin, 0.0243 µM; with BMX-IN-1 (QL-XII-61), over 10 µM. Moreover, the IC50 was over 1 µM with UNC1215; 0.959 µM with OSI-027; 17.3 µM with BIX02189; 1730 µM in the test with Dimethyloxalylglycine; over 10 µM with CCT018159.
Take ES4 (Ewing sarcoma, adherent): the AUC in the test with TG101348 is 0.591; with Vismodegib, 0.975; with VX-11e it was 0.958; in the test with 17-AAG, 0.92; in the test with Doxorubicin it was 0.203; with BMX-IN-1 (QL-XII-61) it was 0.81. Besides, the AUC with UNC1215 turned out to be 0.98; with OSI-027, 0.301; with BIX02189 it was 0.805; in the test with Dimethyloxalylglycine, 0.69; in the test with CCT018159, 0.856. The IC50 is 1.18 µM in the test with TG101348; over 10 µM in the test with Vismodegib; over 5.12 µM with VX-11e; over 1 µM with 17-AAG; 0.00722 µM with Doxorubicin; 6.25 µM with BMX-IN-1 (QL-XII-61). Also, the concentration for half-maximal inhibition (IC50) is over 1 µM in the test with UNC1215; 0.314 µM with OSI-027; 11.9 µM with BIX02189; 931 µM with Dimethyloxalylglycine; 9.98 µM with CCT018159.
